Hit rate of the full screen: of about 7,900 compounds, about 400 (5.1%) showed an effect of 50% or more. The list shows a part of the results.
target: Parkinson's disease protein 7 (PARK7/DJ1) (human, UniProt Q99497); test: primary screen, percent inhibition; read as competition with a fluorescent probe by fluorescence polarization; higher = more effect of the substance; conditions: 100 µM
In short: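 Fluorescence-polarization probe displacement (JYQ-107, 20 nM final, 2 h) after 2 h preincubation of PARK7 (0.2 μM final) with each fragment at 100 μM final. Read-out ex/em 480/520 nm; remaining activity derived from FP signal loss relative to reference controls.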

Parkinson's disease protein 7 (PARK7/DJ1), sequence (Q99497 whole entry, looked up, the tested form may be a part): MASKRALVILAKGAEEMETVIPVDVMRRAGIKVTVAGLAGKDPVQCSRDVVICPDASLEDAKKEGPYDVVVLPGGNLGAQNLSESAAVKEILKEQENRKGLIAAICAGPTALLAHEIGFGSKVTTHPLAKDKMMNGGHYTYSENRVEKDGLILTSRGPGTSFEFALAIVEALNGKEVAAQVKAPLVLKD

| Structure (SMILES) | Inhibition % [%] |
| --- | --- |
| Sc1ccc(-c2ccco2)nn1 | 57.3 |
| CC1(C)OB(c2ccccc2N2CCOCC2)OC1(C)C | 4.39 |
| O=C1OCCC1N1CCN(c2nccs2)CC1 (centres unmarked) | 2.57 |
| Cc1cc(C)nc(-n2nc(C)cc2NC(=O)CCl)n1 | 8.57 |
| Cc1ccsc1C=C(C#N)C(=O)NCCN1CCOCC1 | 13.2 |
| C=CC(=O)NCC1CCOC2(CCC2)C1 (centres unmarked) | 7.99 |
| CC(=O)Nc1ccc(C=C(C#N)c2ccccn2)cc1.Cl | 19.4 |
| COCCN(C)c1ccnc(C#N)c1 | 1.89 |
| CC1Cc2ccccc2N1C(=O)CCN1CCSC1=O (centres unmarked) | 4.3 |
| CN1CC(Nc2ccc(C#N)nc2)CCC1=O (centres unmarked) | 20.9 |
| C=CC(=O)NC(Cc1ccccc1)c1ncco1 (centres unmarked) | 11.9 |
| N#Cc1coc(C(F)(F)F)n1 | 5.35 |
| C=CC(=O)Nc1ccccc1N1CCNC(=O)C1 | 10.7 |
| Cc1ccc(C=CC(=O)N2CCCCC2C(=O)O)o1 (centres unmarked) | 13.8 |
| O=S(=O)(F)CCCS(=O)(=O)Nc1ccc(F)cn1 | 77.2 |
| C=CC(=O)NCCC1CC1(F)F (centres unmarked) | 4.88 |
| C=CC(=O)NCc1cccnc1N1CCOCC1 | 4.99 |
| CC(C)C(NC(=O)CCl)c1ccc(F)cc1 (centres unmarked) | 6.09 |
| C=CC(=O)N1CCn2c(nnc2C(C)C)C1 | 13.2 |
| O=C(C=Cc1cccnc1)N1CCOc2ccccc21 | 4.17 |
| CCOc1ccc(S(=O)(=O)n2ccnc2C)cc1 | 0.397 |
| OB(O)C1CCN(Cc2cc3c(cn2)OCO3)C1 (centres unmarked) | 8.89 |
| COc1cccc(OS(=O)(=O)c2ccc(Cl)nc2)c1 | 3.42 |
| O=C(O)C1CCN(C(=O)C=Cc2cccnc2)CC1 | 2.49 |
| N#CC(=Cc1ccc(CSC(F)F)o1)C(N)=O | 16.4 |

| Structure (SMILES) | Inhibition % [%] |
| --- | --- |
| COC(=O)CC1(CS(=O)(=O)F)CC1 | 8.14 |
| O=C(CCl)N1CCc2sccc2C1c1cccs1 (centres unmarked) | 9.95 |
| CC1(C)OB(c2ccccc2C(F)F)OC1(C)C | 10 |
| c1ccc2c(OCC3CO3)cccc2c1 (centres unmarked) | -2.98 |
| O=C1NC2(CCCCCCC2)C(=O)N1CCS(=O)(=O)F | 33.3 |
| CC(C)NC(=O)C(C#N)=Cc1ccc(O)nc1 | 11.6 |
| O=C(CCl)Nc1cc(F)ccc1F | 18.1 |
| CC(NC(=O)Cn1cnc(C#N)n1)c1ccc(F)cc1F (centres unmarked) | 1.26 |
| O=C(c1cccnc1S)N1CCCC2(C1)OCCO2 | 0.421 |
| C=CC(=O)N1CCC(n2ncc3ccccc32)C1 (centres unmarked) | 5.41 |
| Cc1cc(C(=O)CCl)c(C)n1Cc1ccco1 | 54.9 |
| CC1(C)OB(c2c(F)cc(OCc3ccccc3)cc2F)OC1(C)C | 2.29 |
| Cc1cc(OCc2cccc(Cl)c2)ccc1B(O)O | 1.29 |
| O=C(Cc1ccc(S(=O)(=O)F)cc1)NC1CCCC1 | 2.81 |
| CNC(=O)Nc1ccc(B2OC(C)(C)C(C)(C)O2)cc1 | 1.79 |
| CCCCc1nnc(NC(=O)CCl)s1 | 5.92 |
| COc1cccc2sc(NC(=O)CCl)nc12.Cl | 17.5 |
| CC1(C)OB(c2ccc(OC3CC3)cc2)OC1(C)C | 4.09 |
| Cc1cc(C(=O)CCl)ccc1F | 24.6 |
| Cc1csc(C(C#N)=Cc2ccc3c(c2)OCCO3)n1 | 6.03 |
| CC1CCCN(Cc2ccc(CNC(=O)CCl)cc2)C1.Cl (centres unmarked) | 13.2 |
| C=CC(=O)NC1COc2cc(Cl)ccc2C1 (centres unmarked) | 6.51 |
| O=C(Nc1ccc(C2CC2)nn1)N[C@@H]1COC(=O)C1 | 18.2 |
| N#Cc1nc2ccccc2o1 | 4.9 |
| CCCn1c(N)c(C(=O)CCl)c(=O)[nH]c1=O | 3.15 |

| Structure (SMILES) | Inhibition % [%] |
| --- | --- |
| C=CC(=O)Nc1cccc(C(F)(F)F)c1 | 9.31 |
| C=CC(=O)N1CCC(c2csc(C)c2)C1 (centres unmarked) | 8.44 |
| CN(Cc1ccc(F)cc1Cl)c1nccnc1C#N | 6.11 |
| O=C(CCl)Nc1ccc2c(c1)oc1ccccc12 | 62.9 |
| CC(=O)c1ccc(NC(=O)CCl)cc1 | 45.4 |
| CCc1noc(CC)c1CNC(=O)c1cccnc1S | 15.1 |
| O=C(CCCl)Nc1cccc(S(=O)(=O)N2CCCC2)c1 | 4.27 |
| N#Cc1nccn1Cc1ccccc1C(F)(F)F | 7.07 |
| CN(CC(C)(C)O)C(=O)c1ccc2c(=O)[nH]c(S)nc2c1 | 13.3 |
| C=CC(=O)NCC(=O)Nc1ccccn1 | 11 |
| O=C(O)C12CC3CC(CC(Cl)(C3)C1)C2 | 8.12 |
| O=C(CCl)N1CCC(Cc2ccccc2)CC1 | 31.1 |
| CC1CCC2(CC1)NC(=O)N(CC=CCl)C2=O (centres unmarked) | -0.501 |
| O=C(C1CCOCC1)N1CCCCC1CCS(=O)(=O)F (centres unmarked) | 82.4 |
| CCc1ccc(CNC(=O)CCl)s1 | 4.03 |
| C=CC(=O)N1CC(C)C(N2CCOCC2)C1 (centres unmarked) | 4.1 |
| C=CC(=O)N1CCn2c(cc3ccccc32)C1 | 24.6 |
| CC1CN(CC2OCCO2)CCC1c1ccccc1 (centres unmarked) | 8.86 |
| CC(C)COc1ccc(B(O)O)cn1 | 9.39 |
| Cl.ClCCn1cncn1 | -0.986 |
| Cc1nn(C)c(NS(=O)(=O)C=Cc2ccccc2)c1C | 11.2 |
| N#CCSCC(=O)NC1CN(c2ccc(F)cc2)C1=O (centres unmarked) | 5.09 |
| Cc1ccc(CNC(=O)CCl)cc1F | 3.35 |
| O=S(=O)(F)c1ccc2cnccc2c1 | 86.1 |
| CC1(C)OB(c2cnn3cccnc23)OC1(C)C | 7.34 |

| Structure (SMILES) | Inhibition % [%] |
| --- | --- |
| Cc1ccc(C=CS(=O)(=O)Nc2cc(C)nn2C)cc1 | 20 |
| N#CC(=Cc1ccco1)C(=O)O | 4.73 |
| COc1ccccc1C=CC(=O)N1CCNC(=O)C1 | 13.9 |
| Cc1cnc(C#N)c(C)c1 | 6.16 |
| CC(C)(C)OC(=O)Nc1ccc(F)c(B2OC(C)(C)C(C)(C)O2)c1 | 4.59 |
| Cl.OB(O)c1ccc(CN2CCOCC2)cc1 | 2.75 |
| Cc1ccoc1C=C(C#N)C(=O)NCc1ccco1 | 2.51 |
| CCOc1cc(C)c(C)cc1S(=O)(=O)n1ccnc1CC | 5.01 |
| COc1nc(C#N)ncc1C | 1.53 |
| CCC(=O)N1CCc2cc(C(=O)CCl)ccc21 | 3.43 |
| C=CC(=O)NCC1CCCOC1c1ccc(C)cc1 (centres unmarked) | 9.55 |
| CCOc1cc(S(=O)(=O)n2nc(C)cc2C)ccc1F | 1.46 |
| CC(=O)c1ccc(F)c(B2OC(C)(C)C(C)(C)O2)c1 | 5.97 |
| N#Cc1n[nH]c2ccccc12 | 5.12 |
| N#CN(Cc1nccs1)c1ccc(F)cc1 | 24.2 |
| C=CCNC(=O)C(C#N)=Cc1ccc2c(c1)OCCO2 | 6.87 |
| CC1(C)OB(c2ccco2)OC1(C)C | 7.09 |
| Cc1ccc(Oc2ccc(NC(=O)CCl)cc2)cc1 | 36.3 |
| N#Cc1nccnc1N1CCCC2(CC=CCC2)C1 (centres unmarked) | 9.07 |
| COCCn1cc(B2OC(C)(C)C(C)(C)O2)cn1 | 10.8 |
| O=C1OCC[C@@H]1NS(=O)(=O)c1csc2ccccc12 | 6.58 |
| O=C(Nc1ccc(S(=O)(=O)F)cc1)c1cc2c(=O)[nH]cnc2cn1 | 9.83 |
| N#Cc1nc(Cc2ccccc2)oc1N1CCOCC1 | 0.611 |
| C=CC(=O)NCC1(CO)COCC2(CCC2)N1C (centres unmarked) | 4.79 |
| CCO[C@H]1C[C@H](n2cc(-c3ccc(S(=O)(=O)F)cc3)nn2)C1 | 29 |

| Structure (SMILES) | Inhibition % [%] |
| --- | --- |
| O=C(CCl)NC1CCCCC1 | 11.7 |
| O=C(CCl)NCCCn1cccn1 | 7.26 |
| CCCNC(=O)C(C#N)=Cc1ccc(C2OCCO2)cc1 | 21.9 |
| COc1ccc(CC(C)=CC#N)cc1 | 23.8 |
| COc1ccc(-c2nc(C#N)c(N3CCCC3)o2)cc1 | 5.17 |
| N#Cc1nccnc1NCC1(Sc2ccccc2)CC1 | -1.71 |
| COc1cccc2c1CCC2NC(=O)c1cccnc1S (centres unmarked) | 1.42 |
| C=CC(=O)Nc1ccc(N2CCCC(C(N)=O)C2)nc1 (centres unmarked) | 27.7 |
| O=C(CCl)c1ccc(F)cc1F | 18.5 |
| O=C(CCl)Nc1cc([N+](=O)[O-])ccc1F | 17.5 |
| C=CC(=O)NC1CCc2nnc(CC)n2C1 (centres unmarked) | 7.66 |
| C=CC(=O)N1CCCC1CSC (centres unmarked) | 6.12 |
| Cc1cccc(CC(CO)Nc2ccc(C#N)nc2)c1 (centres unmarked) | -2.96 |
| CCC(=O)N(c1cc(C)cc(C)c1)C1C=CS(=O)(=O)C1 (centres unmarked) | 6.07 |
| CC(C)(C)OCCOc1cccc(C#N)n1 | 9.61 |
| CC(NC(=O)CCl)c1ccc(F)cc1F (centres unmarked) | 7.43 |
| OB(O)c1ccccc1COc1ccc(F)cc1 | 7.53 |
| O=S1(=O)CCC2OC2C1 (centres unmarked) | 9.31 |
| O=C1OCCC1Sc1nnc(-c2ccco2)o1 (centres unmarked) | 13.9 |
| C=CC(=O)NCC1CCOCC1 | 7.85 |
| Cn1cc(NS(=O)(=O)C=Cc2ccccc2Cl)cn1 | 28.6 |
| N#CC(=Cc1ccc(F)cc1)c1nnc2n1CCCCC2 | 6.3 |

Reference: PMC9574860, “Chemical Toolkit for PARK7: Potent, Selective, and High-Throughput” (Journal of Medicinal Chemistry, 2022)
